Structures are written as SMILES. About 14,000 (4.5%) of roughly 310,000 compounds showed an effect of 50% or more. Effects have a minus sign here. Some of the results follow.
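Further: peak tail current of the secondary pulse compared with the same well before compound.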

The target of this experiment is human ether-à-go-go-related gene (hERG) potassium channel (human, UniProt Q12809). The experiment can be described thus: primary screen, population patch clamp on CHO cells stably expressing hERG.
human ether-à-go-go-related gene (hERG) potassium channel, sequence (Q12809 whole entry, looked up): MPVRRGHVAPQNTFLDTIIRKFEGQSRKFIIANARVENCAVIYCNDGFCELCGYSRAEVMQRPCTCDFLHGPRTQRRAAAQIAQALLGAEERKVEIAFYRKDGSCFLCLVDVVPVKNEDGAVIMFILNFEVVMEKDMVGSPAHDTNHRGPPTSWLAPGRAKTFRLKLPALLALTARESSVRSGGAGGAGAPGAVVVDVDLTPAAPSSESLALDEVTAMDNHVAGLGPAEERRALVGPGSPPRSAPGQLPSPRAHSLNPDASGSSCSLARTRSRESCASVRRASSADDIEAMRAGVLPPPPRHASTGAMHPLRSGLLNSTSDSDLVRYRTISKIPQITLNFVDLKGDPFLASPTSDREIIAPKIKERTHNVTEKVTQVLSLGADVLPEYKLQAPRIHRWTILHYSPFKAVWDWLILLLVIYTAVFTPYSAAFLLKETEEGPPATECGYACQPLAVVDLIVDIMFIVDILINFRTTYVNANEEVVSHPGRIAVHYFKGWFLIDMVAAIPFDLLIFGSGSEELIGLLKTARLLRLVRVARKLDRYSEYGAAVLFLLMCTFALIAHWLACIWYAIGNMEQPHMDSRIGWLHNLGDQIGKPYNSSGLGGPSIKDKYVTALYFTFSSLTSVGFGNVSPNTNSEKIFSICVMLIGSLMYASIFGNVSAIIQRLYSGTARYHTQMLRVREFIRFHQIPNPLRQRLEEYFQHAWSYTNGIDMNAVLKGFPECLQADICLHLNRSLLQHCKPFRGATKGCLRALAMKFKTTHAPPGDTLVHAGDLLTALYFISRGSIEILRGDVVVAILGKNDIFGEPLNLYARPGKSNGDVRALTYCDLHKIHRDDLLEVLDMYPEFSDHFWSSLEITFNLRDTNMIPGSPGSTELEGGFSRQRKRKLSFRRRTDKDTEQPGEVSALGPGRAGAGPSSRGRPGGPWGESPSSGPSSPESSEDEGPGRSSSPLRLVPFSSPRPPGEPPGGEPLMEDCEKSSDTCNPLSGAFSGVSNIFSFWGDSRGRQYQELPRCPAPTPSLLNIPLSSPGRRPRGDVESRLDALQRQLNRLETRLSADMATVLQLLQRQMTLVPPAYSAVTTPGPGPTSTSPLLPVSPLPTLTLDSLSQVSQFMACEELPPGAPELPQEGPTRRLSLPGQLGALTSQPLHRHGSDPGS
Take `Cc1cc(NC(=O)c2ccc(S(=O)(=O)N3CCOCC3)cc2)no1`: the “hERG current change (%, negative = inhibition) at 10uM” value was found to be 17.5%. As for `CCNc1nc(NCC)nc(SCCOC(=O)COc2ccc(Cl)cc2Cl)n1`, the figure is 6.49%; as for `Cc1ccc(S(=O)(=O)N2c3ccccc3-c3c(ssc3=S)C2(C)C)cc1`, -2.34%; as for `CCCCc1ncc(CN2CCC(n3nccc3NC(=O)C(OC)c3ccccc3)CC2)[nH]1` (stereo not shown), 9.16%. As for `Cn1ccnc1SCC(=O)NC1CC1`, the figure is -13.9%. As for `COc1cccc(-c2cc(C(=O)NN3CCOCC3)c3ccccc3n2)c1`, the figure is -24.3%. Take `CC(=O)Nc1ccc(C(=O)N/C(=C/c2ccccc2)C(=O)N2CCCCC2)cc1`: the “hERG current change (%, negative = inhibition) at 10uM” value came to 4.57%. The figure for `CC(=O)Nc1ccc2nc(NC(=O)COc3ccccc3Cl)sc2c1` is 13.9%; for `CCCC(=O)Nc1ccc(C(=O)N/N=C2\CC(=O)CC(C)(C)C2)cc1` it is -12.3%; for `COC(=O)c1ccc2c(=O)n(CCN3CCOCC3)c(=S)[nH]c2c1` it is -12.1%.

For the compound `NS(=O)(=O)c1ccc(NC(=S)NCc2ccco2)cc1`, the “hERG current change (%, negative = inhibition) at 10uM” value was found to be 12.5%. Turning to `CCOc1c(Br)cc(CNc2ccc(N3CCOCC3)cc2)cc1OC`, the “hERG current change (%, negative = inhibition) at 10uM” value came out at 19.8%. The figure for `Cc1ccc(CN=Cc2[nH]c3ccc(Br)c(Cl)c3c2O)cc1` is 10.4%; for `COc1ccc2c(c1)CCCC21NC(=O)N(CC(=O)NC(=O)NCc2ccccc2)C1=O` (stereo not shown) it is 9.12%; for `CCOc1ccc([C@@H]2CC=C(C(=O)O)[C@H](c3ccc(F)cc3)N2S(=O)(=O)c2ccc(C)cc2)cc1` it is 16.7%. As for `CCc1ccc(-c2cc(-c3n[nH]c(=S)n3CC)c3ccccc3n2)cc1`, the figure is 2.2%; as for `Cc1ccc(N(CC(=O)NCc2ccccc2)S(=O)(=O)c2c(C)noc2C)cc1`, 15.2%.

In the case of `Cc1ccc(C(=O)CN2C(=O)NC3(CCOc4ccccc43)C2=O)s1` (stereo not shown), the “hERG current change (%, negative = inhibition) at 10uM” value is recorded as -12.2%.

Regarding `COc1ccc(NS(=O)(=O)c2cccc(C(=O)NNC(=O)c3cc(S(N)(=O)=O)ccc3OC)c2)cc1`, the “hERG current change (%, negative = inhibition) at 10uM” value is -1.5%. As for `O=S(=O)(NC(=NCCc1ccc(Cl)cc1)c1ccccc1Cl)c1cccs1`, the figure is 0.244%; as for `Cc1cccc(C)c1OCc1nc2ccccc2c(=O)n1/N=C/c1ccc(OCC(=O)O)cc1`, 7.75%.

`CN(CC(=O)Nc1ccc(Cl)c(C(F)(F)F)c1)C(=O)c1cccc(N2C(=O)CCC2=O)c1`: the “hERG current change (%, negative = inhibition) at 10uM” value is -20.5%. As for `CCC1(CC)Cc2ccccc2-c2nc(-c3ccccc3)oc(=O)c21`, the “hERG current change (%, negative = inhibition) at 10uM” value is recorded as 14.5%.

Consider `COc1ccc(C(=O)N2CC(=O)Nc3ccccc32)cc1S(=O)(=O)N1CCOCC1`, for which the “hERG current change (%, negative = inhibition) at 10uM” value was 6.04%. Take `Cc1ccc(NC(=O)C2CCN(S(=O)(=O)c3ccccc3)CC2)cc1`: the “hERG current change (%, negative = inhibition) at 10uM” value is listed as -15.4%. The figure for `COc1cc(/C=N/NC2=NC(C)(C)Cc3ccccc32)cc(OC)c1OC` is -4.24%; for `COc1ccc(NC(=O)CN2CCN(CC(=O)Nc3ccccc3F)CC2)c(OC)c1` it is -63.5%; for `COc1ccc(-n2c(=O)c(CCC(=O)N(C)Cc3ccccc3C)nc3ccccc32)cc1` it is -50.4%. The figure for `C=C1CCN([C@H](C(=O)NCc2cc(OC)c(OC)c(OC)c2)C(C)C)S(=O)(=O)c2ccccc21` is 0.512%. With `CCC(C)(C)C1CCc2c(sc(NC(=O)c3ccoc3C)c2C(N)=O)C1` (stereo not shown), the “hERG current change (%, negative = inhibition) at 10uM” value is given as 17.8%. The figure for `COC(=O)C1=C(C)N(C)C(=O)NC1c1ccccc1` (stereo not shown) is -5.95%.

For `Cc1ccc(C2C(C(=O)O)c3ccccc3C(=O)N2C)c(C)c1` (stereo not shown), the “hERG current change (%, negative = inhibition) at 10uM” value was -12.1%. As for `COc1ccc2nc(NCCNC(=S)NCCCN3CCOCC3)c(C#N)cc2c1`, the figure is -4.46%; as for `CN(C)CCNc1oc(-c2ccccc2F)nc1C#N`, -10.7%. On to `Cc1sc(NC(=O)CSc2nnnn2C2CCCC2)c(C#N)c1C`, for which the “hERG current change (%, negative = inhibition) at 10uM” value is on record as -0.024%. The figure for `CCOc1ccc(NC(=O)c2c3c(nc4ccccc24)CCC3)cc1` is 8.95%; for `COc1ccc(-c2cc(=O)c3ccccc3[nH]2)cc1` it is 9.89%. The figure for `NC(=O)NCc1cccc(Cl)c1` is 12.3%. With `O=S(=O)(NCc1ccccc1)c1cccs1`, the “hERG current change (%, negative = inhibition) at 10uM” value is -0.117%. As for `CC(CCc1ccccc1)NC(=O)N1CCOCC1` (stereo not shown), the figure is -7.1%.

As for `S=C1NC2=C(CCCC2=C2SCCCS2)C(c2ccccc2)N1` (stereo not shown), the “hERG current change (%, negative = inhibition) at 10uM” value turned out to be 13.9%.

In the case of `Cc1ccc(CNC(=O)CN(C2CCCCC2)S(C)(=O)=O)cc1`, the “hERG current change (%, negative = inhibition) at 10uM” value was -12.4%. The figure for `Cc1ccc2[nH]c(=O)c(CN(CCO)Cc3nnnn3CCc3ccccc3)cc2c1` is -26.2%. As for `NC(=O)CC(NC(=O)c1cccc(Br)c1)c1ccc(N2CCCCCC2)c([N+](=O)[O-])c1` (stereo not shown), the figure is -14.1%; as for `COc1ccc(-c2cc(-n3c(C(F)(F)F)nc4ccccc43)n(CCC#N)n2)cc1`, 13.2%; as for `CCCC(C)C1C(C#N)=C(N)Oc2c1c(=O)oc1ccccc21` (stereo not shown), -2.94%.

`O=C(CCNC(=O)c1ccc(Br)cc1)NC1CCCc2ccccc21` (stereo not shown): the “hERG current change (%, negative = inhibition) at 10uM” value is listed as -11.3%.

With `COC(=O)c1c(-c2ccccc2)nn(-c2ccccc2)c1C(=O)OC`, the “hERG current change (%, negative = inhibition) at 10uM” value was found to be 13.6%. The figure for `COc1ccc(C2/C(=C(\O)c3ccc4c(c3)OCCO4)C(=O)C(=O)N2CCCN(C)C)cc1` (stereo not shown) is 17%; for `Cc1ccc2c(c1)C(c1ccc(O)cc1)(c1ccc(O)cc1)C(=O)N2C` it is 4.27%. As for `COCCN1CCn2c(nc3cc(NC(=O)c4ccc(OC)cc4)ccc32)C1`, the figure is -13.8%.

Regarding `NS(=O)(=O)c1cccc(NC(=O)C2CC(=O)N(Cc3ccco3)C2)c1` (stereo not shown), the “hERG current change (%, negative = inhibition) at 10uM” value worked out at 11.8%.

Turning to `O=C1C(=O)c2c(C(=O)c3ccccc3)coc2-c2ccccc21`, the “hERG current change (%, negative = inhibition) at 10uM” value is given as -27.3%.

Regarding `Cn1nc(C(F)(F)F)c(/C=N/OC(=O)c2ccc(Cl)cc2)c1Cl`, the “hERG current change (%, negative = inhibition) at 10uM” value amounted to 14.4%.

As to `CCCc1[nH]n(-c2ccc([N+](=O)[O-])cc2)c(=O)c1C=NCCN1CCNCC1`, the “hERG current change (%, negative = inhibition) at 10uM” value is given as -47.1%.
